Test results as given in PubChem BioAssay (NCI).
Values joined by “and” are separate entries in the source; they are usually repeats but may differ in a detail not shown here. Equal values may be shown once.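 Tested at 5 concentrations; 48 h exposure; 96-well plates; endpoints linearly interpolated, else capped at highest concentration. GI50 is the concentration that inhibits growth by half. TGI: concentration producing complete growth inhibition.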

The compounds below were run on NCI-H322M lung (assay: DTP human tumour cell line panel, 48 h).

| Structure (SMILES) | TGI [µM] | GI50 |
| --- | --- | --- |
| CCOC(=O)C1(Cc2ccccc2)CCCCCN1 (configuration not stated) | > 100 |  |
| Cc1c(C(=O)N2CCN(c3ccc([N+](=O)[O-])cc3)CC2)[n+](=O)c2cc(Cl)c(Cl)cc2n1[O-] | 97.5 |  |
| NCCCn1c2ccccc2c2c3c(c4c(c21)CCC(O)CC4)C(=O)NC3=O (configuration not stated) | 14.7 |  |
| COc1c(C(=O)O)oc2c(OC)cccc12 | > 100 |  |
| CCOC(=O)c1c(Br)c(-c2ccc(Br)cc2)c(Br)n1C | > 100 |  |
| CN(C)C(N)=NC#N | > 100 |  |
| O=C(c1ccc2ncc(-c3nc(NC4CC4)ncc3F)n2c1)N1CCOCC1 | 9.61 | 2.47 µM |
| Cc1c(C(=O)NCCO)[n+](=O)c2cc(Cl)ccc2n1[O-] | > 100 |  |
| O=c1[nH]nc(-c2ccccc2)n1/N=C/c1ccncc1 | > 100 |  |
| CCOC(=O)C(CO)c1nc2c([nH]c1=O)c(=O)n(C)c(=O)n2C (configuration not stated) | > 100 |  |
| COc1cc(/C=C2\CC3C4CC=C5C[C@@H](OC(C)=O)CC[C@]5(C)C4CC[C@]3(C)C2=O)ccc1OCCCn1ccnc1 (some centres not stated) | 22.7 | 8.75 µM |
| Cc1c(C(=O)c2ccccc2C(=O)O)c2ccccc2n1C | > 100 |  |
| Clc1ccc(Cc2nc3ccc(CCN4CCN(c5ccccc5)CC4)cc3[nH]2)cc1 | > 100 |  |
| O=C1CSc2nc3ccccc3n2/C=N\N1 | > 100 |  |
| CCCCc1c(C(=O)OC(C)(C)C)cc(C#Cc2cc(C(=O)OC(C)(C)C)c(CCCC)c(C(=O)OC(C)(C)C)c2)cc1C(=O)OC(C)(C)C | > 100 |  |
| O=C1O/C(=C(\Br)c2cccc3ccccc23)c2ccccc21 | > 54.6 |  |
| O=C(CN1CCN(Cc2ccccc2)CC1)N1CCCn2c1nc1ccccc1c2=O | > 100 |  |
| Cn1c(C(C#N)c2nc(Cl)ncc2Br)nc2ccccc21 (configuration not stated) | > 100 |  |
| ClC(Cl)c1nc(-c2cccnc2)n2nc(-c3ccccc3)cc2n1 | 4.92 | 1.53 µM |
| COc1ccccc1NC(=O)n1nc(N)c2ccccc21 | > 100 | > 100 µM |
| O=C(CC/C=C(/CS(=O)(=O)c1ccccc1)S(=O)(=O)c1ccccc1)c1ccccc1 | > 100 |  |
| CCOc1cc2c(NCCCN(CCO)CCO)ncnc2c(OCC)c1OCC | > 100 |  |
| CCOc1ccc(/C=C(\Cl)c2ccc(OC)c(OC)c2)cc1 | > 100 |  |
| Cc1c2c(cc3c1[nH]c1ccccc13)C=NCC2 | 34.4 |  |
| COc1cccc(-c2ccc3c4c2O[C@H]2c5[nH]c6ccccc6c5C[C@@]5(O)[C@@H](C3)N(CC3CC3)CC[C@]425)c1 | 5.34 |  |
| Cc1cc(CNC(=O)OCc2ccccc2)c(C)c2c1Oc1ccccc1O2 | > 100 |  |

| Structure (SMILES) | TGI [µM] | GI50 |
| --- | --- | --- |
| C=CCOc1ccccc1N=N/C(C#N)=N\Nc1ccccc1OCC=C | > 100 |  |
| COc1ccc(S(=O)(=O)O)cc1-n1nc(C(=O)Nc2ccccc2)n[n+]1-c1cc(S(=O)(=O)[O-])ccc1OC | > 100 |  |
| COc1ccccc1C1SCC(=O)N1c1ccc(-c2ccc(-n3c(-c4ccccc4)nc4ccccc4c3=O)cc2)cc1 (configuration not stated) | > 100 |  |
| [Se]=P(c1ccccc1)(c1ccccc1)c1ccc(C(c2ccccc2)=P(c2ccccc2)(c2ccccc2)c2ccccc2)cc1 | 10.2 |  |
| Cc1sc2nc(-c3cc([N+](=O)[O-])c(Cl)cc3Cl)c(/C=N/N=C(N)N)n2c1C | 34.9 |  |
| Nc1ccc2c(c1)NCCN2 | > 100 |  |
| CN(C)c1ccc(/C=C2\N=C(NN)NC2=O)cc1 | > 100 |  |
| CCN1C(=S)N(CC)C2C1NC(=S)N2/N=C/C=C/c1ccccc1 (configuration not stated) | 37.8 | 6.38 µM |
| CCOC(=O)c1sc2nc(SC)nc3c2c1NC(=O)CN3c1cccc(F)c1 | 68.7 |  |
| COC(=O)c1cc(NC(=O)c2cc(NC(=O)c3cc([N+](=O)[O-])cn3C)cn2C)cn1C | > 100 |  |
| CCOc1cc(NC(C)=O)ccc1C(=O)NN1C(=O)C(Oc2ccccc2)C1c1ccccc1 (configuration not stated) | > 100 |  |
| CC(C)[C@@H]1CC[C@@H](C)C[C@H]1OC(=O)/C=C1/C2C=CC(O2)C1C(=O)O[C@@H]1C[C@H](C)CC[C@H]1C(C)C (some centres not stated) | > 100 |  |
| COc1cc(/C=C\[N+](=O)[O-])ccc1OCc1ccccc1 | 11.4 | 3.24 µM |
| Nc1nnc2cc(Cl)ccc2n1 | > 100 | > 100 µM |
| C[C@]1(CO)[C@H]2CC[C@@]34C=C[C@@](CO)(CC[C@H]3[C@]2(C)CC[C@H]1O)C4 | > 100 |  |
| N#Cc1c(SCc2ccccc2)nc(-c2ccccc2)[nH]c1=S | 73.1 |  |
| CN(C)c1nc(NC23CC4CC(CC(C4)C2)C3)nc(N(C)C)n1 | > 20.7 |  |
| CC12CCC(C(=O)O1)C(C)(C)O2 (configuration not stated) | > 100 |  |
| CCCCCCCCCCCCCCCCSCC(COC)COP(=O)([O-])OCC[N+](C)(C)C (configuration not stated) | 29.1 |  |
| COC1=C(N=[N+]=[N-])C(=O)c2ncccc2C1=O | 31.8 |  |
| O=S(=O)(NCC1CCC(CNc2ccc(Cl)cc2)CC1)c1ccc(-c2ccccc2)cc1 (configuration not stated) | > 50 | > 50 µM |
| COc1cc2cc(C(=O)N3C[C@@H](CCl)c4c3cc(N)c3ccccc43)[nH]c2c(OC)c1OC | > 100 |  |
| NC(=O)N/N=C/C(/C=N/NC(N)=O)[N+](=O)[O-] | > 100 |  |
| O=c1c(SSc2coc3cc(F)ccc3c2=O)coc2cc(F)ccc12 | > 100 |  |
| COc1ccc(C(N)=O)cc1N=NN(C)C | > 100 |  |
| C1CCN(c2nsc(N3CCCCC3)n2)CC1 | > 100 |  |

| Structure (SMILES) | TGI [µM] | GI50 |
| --- | --- | --- |
| COCC(=O)CP(=O)(OC)OC | > 100 |  |
| COC(=O)C(CCc1ccccc1I)C1=CCC2(CC1)OCCO2 (configuration not stated) | > 100 |  |
| O=C(O)CCCCCOc1cccnc1/C=N/NC1=NCCN1 | > 100 |  |
| O=C(Nc1ccc(F)cc1)c1c(NC(=O)C(F)(F)F)sc2c1CCCCC2 | 7.87 | 2.03 µM |
| COc1cccc(NC(=O)CC(=O)N2N=C(N(CCC#N)c3ccccc3C)CC2c2ccccc2)c1 (configuration not stated) | > 100 |  |
| CC(=O)O[C@H]1CC[C@@]2(C)C(=CC[C@H]3[C@@H]4C/C(=C\c5cccc(OCCN6CCOCC6)c5)[C@H](OC(C)=O)[C@@]4(C)CC[C@@H]32)C1 | 30.7 | 14.2 µM |
| O=[N+]([O-])c1ccc(N/N=C/c2c(O)ccc3ccccc23)nc1 | > 100 | 6.75 µM |
| C/C(=N/NC(=S)Nc1ccccc1Cl)c1cccc(/C(C)=N\NC(=S)Nc2ccccc2Cl)n1 | 8.28 |  |
| Cc1ccc(OCC2OC(n3cnc4nc(Cl)nc(Cl)c43)CC2Oc2ccc(C)cc2)cc1 (configuration not stated) | 29.5 |  |
| COC(=O)C1=C(C)NC2(O)C=CC(=O)C3C(=O)N(c4ccccc4)C(=O)C132 (configuration not stated) | > 100 |  |
| Cn1ncc2c(N)nc(N3CCCCC3)nc21 | 59.7 | 18.5 µM |
| CC(=O)O[C@H]1CC[C@@]2(C)C(=CC[C@H]3C4=CC=C(C(C)=O)[C@@]4(C)CCC32)C1 (some centres not stated) | > 100 |  |
| CN1C(=S)C(c2ccccc2)Sc2ccccc21 (configuration not stated) | > 100 |  |
| O=C(NCCCNc1cc(-c2cn(-c3ccccc3)nc2-c2cccc(O)c2)ccn1)c1ccccc1 | 72.6 | 4.45 µM |
| CC(C)(C)NCc1cc(C(C)(C)C)cc(-c2ccc(Cl)cc2)c1O | 30.1 |  |
| O=C(O)/C(=C/c1c(O)ccc2ccccc12)c1csc(-c2nc(/C(=C\c3c(O)ccc4ccccc34)C(=O)O)cs2)n1 | 31 |  |
| Cn1c(=O)c2c(nc3n(Cc4ccccc4)c(=O)c(NCCBr)cn23)n(C)c1=O | > 100 |  |
| CCOC(=O)C(Cc1c[nH]c2ccc(N(CCCl)CCCl)cc12)(NC(C)=O)C(=O)OCC | 271 | 44.4 µM and 43.3 µM |
| COc1ccc2cc1Oc1ccc(cc1)C(Sc1ccccc1)CCOC(=O)CC2 (configuration not stated) | > 100 |  |
| COC(=O)C(C)(N=Cc1ccccc1)c1ccccc1 (configuration not stated) | > 100 |  |
| Cc1nc2ccc(Nc3nc(NCCN4CCOCC4)nc(Nc4ccc(F)cc4)n3)cc2n1Cc1ccccc1 | 42 | 4.36 µM |
| COc1ccc(/C=C/c2nc(NCCCN(C)C)c3ccccc3n2)cc1 | 20.8 | 5.98 µM |
| Cc1ccnc2[nH]c(-c3cccc(Cl)c3)cc(=O)c12 | > 100 |  |
| CN(C)CCCN1c2nc3ccccc3cc2Sc2cc3ccccc3nc21 | 3 | 1.6 µM |
| NC(=O)c1cc(Br)cc(C2CCCCC2)c1O | 28.7 | 14.5 µM |
| NC1CCN(c2nc(Nc3cccc(C(F)(F)F)c3)c3c(=O)[nH]ccc3n2)CC1 | 3.09 | 1.19 µM |

| Structure (SMILES) | TGI [µM] | GI50 |
| --- | --- | --- |
| ClC(Cl)(Cl)C1=N[C@H]2[C@H](Br)[C@@H]3O[C@@H](c4ccccc4)[C@H](c4ccccc4)O[C@@H]3[C@H]2O1 | 39.1 |  |
| Cc1ccc(N=Nc2c(O)ccc3cc(S(=O)(=O)O)ccc23)c(C)c1 | > 100 |  |
| CC(=O)OCCOCNC(=S)N/N=C(\C)c1cnc2ccccc2n1 | > 100 |  |
| CN1CCCN(C)C1c1cc([N+](=O)[O-])ccc1O | > 100 |  |
| CN1NC2(CCCCC2)ON=C1c1ccccc1 | > 100 |  |
| CCC(=O)C(C)C1=Nc2nnc(CCCCCCCc3nnc4n3C(=O)C(C(C)C(=O)CC)=N4)n2C1=O (configuration not stated) | > 100 |  |
| O=C1/C(=C\c2cccc(Oc3ccccc3)c2)S(=O)(=O)C(c2ccccc2)N1c1ccccc1Cl (configuration not stated) | > 100 |  |
| CC1(C)N=C(C(N)=O)c2ncn(CCO)c2N1 | > 100 |  |
| CCOC(=O)Nc1c(C#N)[n+]([O-])c2cc(Cl)c(Cl)cc2[n+]1[O-] | 67.1 |  |
| NNc1nc2ccccc2c(=O)n1NC(=O)C(=O)Nc1cccc(C(F)(F)F)c1 | > 100 |  |
| N#Cc1cnc2cc(OC[C@@H](O)CO)c(NC(=O)CC3CSSC3)cc2c1Nc1ccc(OCc2cccc(F)c2)c(Cl)c1 | 1.36 | 0.468 µM |
| O=[N+]([O-])/C(C(Cl)=C(Cl)Cl)=C1\NCCO1 | > 100 |  |
| O=c1cc2ccccc2nn1Cc1ccccc1Cl | > 100 |  |
| CC(=O)NCCC1CN(C(=O)/C=C\C#C[Si](C)(C)C)c2ccccc21 (configuration not stated) | > 100 |  |
| OCC1OC(n2ccc3c(NO)ncnc32)C(O)C1O (configuration not stated) | 0.846 | 0.0996 µM |
| COc1cccc(C(=O)N2CCc3ccccc32)c1OC | > 100 |  |
| O=C1C(NCCc2ccc(O)c(O)c2)=CC(=O)c2ncccc21 | 38.6 |  |
| N=c1nnc(=O)c2c(s1)-n1ncc(C(=O)O)c1NN2 | > 100 |  |
| Cc1cc(C)c(C[N+](C)(C)C)c(C)c1C | > 76.3 | 0.468 µM |
| O=c1[nH]nc(-c2ccccc2)n1/N=C/c1c[nH]c2ccccc12 | > 100 |  |
| OCCSCc1ccccc1 | > 100 |  |
| CC(C)c1ccc(C(=O)Nc2sc3c(c2C#N)CCC(=O)C3)cc1 | > 100 | 6.13 µM |
| C(=N\OCc1ccccc1)/c1ncccc1C1OCCO1 | > 100 |  |
| COc1cc2c3c(n(CCCNCCN)c(=O)c2cc1OC)-c1cc2c(cc1C3=O)OCO2 | 4.6 | 0.844 µM |
| CC(C)CCC[C@@H](C)[C@H]1CCC2C3CC=C4C[C@@H](Oc5c6ccccc6nc6ccccc56)CCC4C3CCC21 (some centres not stated) | > 50 |  |
